# Among all 130,000 compounds or so, about 1,200 (0.92%) were called active. Inconclusive means that the source gave no clear call. Such entries were picked first, then a sample of the others. Calls follow the shape of the dose curve; as a rule, active = well fitted cell-killing curve with a large enough effect; inconclusive = small, poorly fitted or top-dose-only effect; inactive = no such curve, though single readings can be large or run the other way. Potencies of inconclusive entries are doubtful fits and often do not repeat.
# Test: qHTS Screen for Compounds that Selectively Target Cancer Cells with p53 Mutations: Cytotoxicity of p53ts Cells at the Permissive Temperature; also: nearly all actives have a fitted effect of over 55% in size;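 as to activity change, negative = cytotoxicity: 0% = DMSO and -100% = full killing by reference compound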
# Conditions: H1299-p53A138V at 32C, ATP luminescence viability, 24 h; activity change, negative = cytotoxicity: at 46.1 µM (top of the series)
# Outline: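 ATP-content luminescence (ATPlite) read-out after 24 h compound exposure at 32C in H1299-p53A138V cells (600/well). Tested up to 46 uM. Normalized to DMSO (0%) and 100 uM tamoxifen (100% killing); Hill-fit AC50.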
# Potency is read from the fitted curve at half-maximal effect; tags tell the direction and shape of the fitted curve.
SMILES,Potency,"activity change, negative = cytotoxicity"
C=CCn1c(SCC(=O)NC(=O)NCc2ccco2)nc2sc(C)c(C)c2c1=O,"inconclusive: 31.6 µM [cytotoxic, single point]",–
CCC1(C)CC(=O)c2c(ccc3oc(C(=O)NCc4ccccc4)c(C)c23)O1 (stereo unspecified),–,inactive: -15.5%
O=C(c1ccc(N2CCOCC2)cc1)c1cccs1,active: 12.6 µM,–
COc1ccc(-c2cc(CCCC(=O)NCc3ccccn3)no2)cc1,"inconclusive: 12.6 µM [cytotoxic, partial curve]",–
O=C(Nc1ccc(-c2noc(COc3ccccc3Cl)n2)cc1)c1ccco1,"inconclusive: 10 µM [cytotoxic, partial curve]",–
COc1ccccc1C(=O)Oc1c(Sc2ccccc2)c(C)nn1C(C)(C)C,"inconclusive: 31.6 µM [cytotoxic, single point]",–
COc1ccccc1N1CCN(c2ncnc3c2cnn3-c2cc(Cl)ccc2C)CC1,"inconclusive: 15.8 µM [cytotoxic, single point]",–
O=C(c1cc2ccccc2oc1=O)N1CCN(c2ccc(N3CCOCC3)nn2)CC1,"inconclusive: 12.6 µM [cytotoxic, partial curve]",–
Cc1cc(C(=O)Nc2nc3c(s2)CCCC3)cs1,"inconclusive: 7.94 µM [cytotoxic, partial curve]",–
Cn1cc(-c2cc3n(n2)CCC(=O)N3CCCC(=O)NCc2ccc(Cl)cc2)c2ccccc21,"inconclusive: 31.6 µM [cytotoxic, single point]",–
CCOC(=O)c1ccc(N2C(=O)c3[nH]nc(-c4ccccc4)c3C2c2ccc(CC)cc2)cc1 (stereo unspecified),"inconclusive: 17.8 µM [cytotoxic, single point]",–
O=C(NCc1cccs1)c1ccc2c(=O)n3nc(Nc4ccccc4)sc3nc2c1,"inconclusive: 3.98 µM [cytotoxic, partial curve]",–
CC(=O)N1CCCc2cc(S(=O)(=O)N(C)Cc3ccccc3)ccc21,–,inactive: -5.75%
C/C(=N\NC(=O)c1csc(C)c1C)c1ccco1,"inconclusive: 1.12 µM [cytotoxic, full curve]",–
O=C(c1ccccc1)N1CCN(S(=O)(=O)N2CCCCC2)CC1,–,inactive: -4.34%
c1ccc2c(c1)Cc1cc(CN3CCOCC3)ccc1-2,"inconclusive: 10 µM [cytotoxic, partial curve]",–
Cc1ccc(CCNS(=O)(=O)c2cc(-c3cc(C)no3)ccc2C)cc1,–,inactive: 2.69%
Cn1nnc2c(N3CCN(c4cccc(Cl)c4)CC3)ncnc21,–,inactive: -5.64%
COCCCNC(=O)c1c(NC(=O)Cc2coc3c(C)c(C)ccc23)sc2c1CCCC2,"inconclusive: 10 µM [cytotoxic, partial curve]",–
CCC(Sc1nnc2c(n1)[nH]c1ccccc12)C(=O)Nc1nnc(C(C)C)s1 (stereo unspecified),"inconclusive: 31.6 µM [cytotoxic, single point]",–
CCCCN(CC)CCCNC(=O)CS(=O)(=O)Cc1nc(-c2ccc(C)cc2)oc1C,–,inactive: -5.81%
COc1ccc(C(=O)NCC(=O)OCC(=O)c2cc(OC)c(OC)c(OC)c2)cc1OC,"inconclusive: 11.2 µM [cytotoxic, partial curve]",–
COc1ccc(/C=C\c2onc(C)c2S(=O)(=O)N2CCC(C(=O)Nc3ccc(F)cc3F)CC2)cc1,–,inactive: -4.73%
CN(C)c1ccc(CN(Cc2ccco2)C(=O)c2ccc(C(C)(C)C)cc2)cc1,–,inactive: 33.1%

SMILES,Potency,"activity change, negative = cytotoxicity"
COC(=O)CSC1=C(C#N)C(c2ccsc2)CC(=O)N1 (stereo unspecified),"inconclusive: 20 µM [cytotoxic, partial curve]",–
Cc1ccc(C)c2sc(NC(=O)c3ccc(S(=O)(=O)N4CCC(C)CC4)cc3)nc12,–,inactive: 29.3%
COCCNC(=O)c1cc(-c2ccc3c(c2)OCO3)on1,"inconclusive: 10 µM [cytotoxic, partial curve]",–
CCn1c(C(=O)NCc2ccc(F)cc2)cc2oc3ccccc3c21,"inconclusive: 2.51 µM [cytotoxic, full curve, poor fit]",–
CC(C)(C)n1ncc2c(=O)n(CC(=O)NCc3ccc(F)cc3)cnc21,"inconclusive: 12.6 µM [cytotoxic, partial curve]",–
CC1CN(C(=O)c2cn3ccccc3n2)CC(C)O1 (stereo unspecified),"inconclusive: 10 µM [cytotoxic, partial curve]",–
CCc1ccccc1-n1c(C)nc2cc(C(=O)NCCc3ccc(Cl)cc3)ccc21,"inconclusive: 6.31 µM [cytotoxic, partial curve]",–
C=CCNc1nc2c(c(=O)[nH]c(=O)n2C)n1Cc1cccc(C)c1,active: 6.31 µM,–
CC(C)c1ccc(NC(=O)NC2CCCCC2)cc1,"inconclusive: 12.6 µM [cytotoxic, single point]",–
COc1ccc(-c2cn3ccc4ccccc4c3n2)cc1,"inconclusive: 10 µM [cytotoxic, partial curve]",–
Fc1ccccc1Cc1cn2cc(-c3ccc(Cl)cc3)nc2s1,"inconclusive: 10 µM [cytotoxic, partial curve]",–
Fc1ccc(-c2nn(-c3ccccc3Cl)c3c2cnc2ccccc23)cc1,"inconclusive: 31.6 µM [cytotoxic, single point]",–
CCc1ccc(-n2c(=O)c3c4c(sc3n(CC(=O)N3CCCCC3CC)c2=O)CCC4)cc1 (stereo unspecified),–,inactive: 17.7%
COC(=O)c1sc2nc3c(cc2c1N)COC(C)(C)C3,"inconclusive: 12.6 µM [cytotoxic, partial curve]",–
Cc1cccc(C)c1OCCCn1c(CCNC(=O)C2CCCCC2)nc2ccccc21,"inconclusive: 25.1 µM [cytotoxic, single point]",–
O=C(COc1ccc2c(c1)OCO2)NC12CC3CC(CC(C3)C1)C2,–,inactive: -0.42%
Cc1ccccc1-c1nc2cc(N)ccc2o1,"inconclusive: 10 µM [cytotoxic, partial curve]",–
O=C(O)c1ccc(B(O)O)cc1,–,inactive: 2.23%
O=c1c(O)cccc2cc(O)c(O)c(O)c12,"inconclusive: 10 µM [cytotoxic, partial curve]",–
O=C(CCCn1c(=O)c2cccn2c2ccccc21)NCCc1ccc(Cl)cc1,active: 10 µM,–
CCN1CCCC1Cn1c(-c2ccccc2)nc2c(N(CCOC)CCOC)nc(C)nc21 (stereo unspecified),–,inactive: 2.41%
COC(=O)CSCc1nc2ccccc2[nH]c1=O,"inconclusive: 31.6 µM [cytotoxic, single point]",–
COc1ccc(OC)c(NC(=O)Cn2c(=O)cc(-c3ccccc3)c3c(C)nn(C)c32)c1,"inconclusive: 31.6 µM [cytotoxic, single point]",–
CCc1ccc(S(=O)(=O)c2nnn3c2nc(Nc2ccc(NC(C)=O)cc2)c2sccc23)cc1,"inconclusive: 31.6 µM [cytotoxic, single point]",–

SMILES,Potency,"activity change, negative = cytotoxicity"
CCOc1ccc(N(Cc2ccccc2)C(=O)c2nc(S(C)(=O)=O)ncc2Cl)cc1,active: 12.6 µM,–
COc1ccc(-c2cc(=O)c3c(O)cc(O)cc3o2)cc1,"inconclusive: 25.1 µM [cytotoxic, partial curve, poor fit]",–
COc1cccc(N2CCN(C(=O)c3nn(C)c4c3CSc3ccc(C)cc3-4)CC2)c1,"inconclusive: 35.5 µM [cytotoxic, single point]",–
COc1cccc(-c2nn(-c3ccccc3)cc2C(=O)NCC(=O)O)c1,"inconclusive: 31.6 µM [cytotoxic, single point]",–
COc1cc(NC(=O)CCc2c(C)nn(-c3ccc(N4CCCCC4)nn3)c2C)cc(OC)c1OC,"inconclusive: 12.6 µM [cytotoxic, partial curve]",–
CCOC(=O)c1c(N)sc(C(=O)N2CCCC2)c1C,–,inactive: -3.64%
CCOc1ccc(CN(CCc2ccc3c(c2)OCO3)Cc2cc(OC)c(OC)cc2OC)cc1,"inconclusive: 12.6 µM [cytotoxic, single point]",–
CCc1nnc(NC(=O)CSc2nc3c(cc2C#N)CCC3)s1,active: 2 µM,–
O=c1cc(-c2ccccc2)oc2cc(O)c(O)cc12,active: 2.51 µM,–
CCOc1ccc2nc(N3CCOCC3)nc(C)c2c1,"inconclusive: 20 µM [cytotoxic, partial curve, poor fit]",–
COc1ccc(OC)c(N2C(=O)[C@@H]3C(c4ccccc4Cl)=NO[C@@H]3C2=O)c1,–,inactive: 5.33%
C[C@@](N)(Cc1ccc(O)cc1)C(=O)O,inactive,–
Cc1ccc(-c2nnc(Nc3ccc(C(N)=O)cc3)c3ccccc23)cc1S(=O)(=O)NCC1CCCO1 (stereo unspecified),"inconclusive: 0.0126 µM [cytotoxic, full curve, poor fit]",–
O=C(CN1CCN(CCOCCO)CC1)N1c2ccccc2Sc2ccc(Cl)cc21,"inconclusive: 0.1 µM [cytotoxic, full curve, poor fit]",–
CC(C)N1CC(O)=C(c2nc3ccccc3[nH]2)C1=N,"inconclusive: 20 µM [cytotoxic, single point]",–
COc1ccccc1CNC(=O)c1c[nH]c2ccc(S(=O)(=O)Nc3cc(C)cc(C)c3)cc2c1=O,–,inactive: 10.8%
O=C(Nc1cccnc1)Nc1ccc2c(c1)OCO2,"inconclusive: 10 µM [cytotoxic, partial curve]",–
NC(=O)c1ccc(-c2ncc(-c3ccccc3)o2)cc1,"inconclusive: 31.6 µM [cytotoxic, single point]",–
C[C@@H](C(=O)O)c1ccc(N2Cc3ccccc3C2=O)cc1,active: 10 µM,–
O=C1CC(=O)CC(c2ccccc2Cl)C1,"inconclusive: 0.0398 µM [cytotoxic, full curve]",–
CC(=O)Oc1ccc2c(c1C(C)C)CCC1C(C)(C)CCC[C@@]21C (stereo partly specified),"inconclusive: 31.6 µM [cytotoxic, single point]",–
COc1ccc2c(c1OC)C(=O)N1c3ccccc3COC21 (stereo unspecified),active: 12.6 µM,–
Cc1ccc(S(=O)(=O)Nc2cccc(-c3ccc(N4CCC(C)CC4)nn3)c2)s1,active: 12.6 µM,–

# — PubChem BioAssay AID924 (National Center for Advancing Translational Sciences (NCATS), 2007)
